# The other results are listed elsewhere or left out. Sequences were assembled here from the parent chain. Values near 0.05 are background.
# B1: TEV protease; numbered along this chain (parent)
# chain: MGESLFKGPRDYNPISSSICHLTNESDGHTTSLYGIGFGPFIITNKHLFRRNNGTLVVQSLHGVFKVKDTTTLQQHLVDGRDMIIIRMPKDFPPFPQKLKFREPQREERICLVTTNFQTKSMSSMVSDTSCTFPSGDGIFWKHWIQTKDGQCGSPLVSTRDGFIVGIHSASNFTNTNNYFTSVPKNFMELLTNQEAQQWVSGWRLNADSVLWGGHKVFMVKPEEPFQPVKEATQL
# Variants of: B1
# Assay: raw area under fraction-flipped curve 0-4 h after induction (AUC4h, not background-subtracted), DNA-recorder readout of cleavage of the substrate (dimensionless); higher = more cleavage of the substrate by the protease variant
# Conditions: temperature: 34 °C; time window: 0-4 h after rhamnose induction
# Protocol: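 In vivo DNA recorder in E. coli TOP10(DE3) ΔrhaA at 34 °C. Each TEVp single-site mutant (parent TEVp 0) is paired with a single-site variant of the 7-mer TEVs (canonical ENLYFQ|S). The substrate sits between flexible linkers in a Bxb1-sfGFP-TEVs-SsrA fusion, so cleavage stabilises Bxb1 and speeds flipping of a recombination array, read by NGS. The value is the raw area under the fraction-flipped curve over 0-4 h after rhamnose induction (AUC4h), with ≥20 reads per time point. It is not background-subtracted; inactive controls average about 0.047.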
# 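Also: Bxb1 expression induced with 0.2% (w/v) L-rhamnose at OD600 near 0.5, cultures sampled hourly, flipped fraction per protease–substrate barcode pair counted by paired-end Illumina sequencing.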
Variant,area with substrate ENAYFQS,area with substrate ENCYFQS,area with substrate ENDYFQS,area with substrate ENEYFQS,area with substrate ENFYFQS,area with substrate ENGYFQS,area with substrate ENHYFQS,area with substrate ENIYFQS,area with substrate ENKYFQS,area with substrate ENMYFQS,area with substrate ENNYFQS,area with substrate ENPYFQS,area with substrate ENQYFQS,area with substrate ENRYFQS,area with substrate ENSYFQS,area with substrate ENTYFQS,area with substrate ENVYFQS,area with substrate ENWYFQS,area with substrate ENYYFQS
L112K,0.0536,0.0653,0.0415,0.0623,0.0627,0.0682,0.0559,0.115,0.0702,0.0793,0.0593,0.0596,0.0635,0.0554,0.0623,0.0732,0.0693,0.0523,
T119E,0.0678,0.0732,0.059,0.0592,0.0766,,0.0563,,,,0.0571,,,0.056,,,0.0483,,0.0474
T119F,0.0771,0.0636,,0.0593,,,,0.119,,0.0761,,,0.0473,,,,,,0.0577
T119M,0.0501,,0.0613,,,,,,,,,,,,0.0704,,,,
T119I,0.0665,,0.0679,0.0319,0.0677,0.0644,0.0656,,,,0.0836,0.0682,0.0595,,0.0218,0.0658,0.0665,0.0444,0.0579
G80Q,0.053,0.0678,0.0543,0.0592,0.0679,0.064,0.0606,,0.0632,0.0719,0.0689,0.0539,0.0619,0.0589,0.0569,0.0669,0.0708,0.0454,
G80E,0.059,0.0725,0.0567,0.0571,,0.0537,0.0437,0.134,,,,0.0561,0.0647,0.0487,0.0968,0.0503,0.0785,,0.0672
G80M,0.0579,0.0686,0.0645,0.0611,0.0596,0.0652,,,,0.0712,0.0569,,0.0716,0.0506,0.0552,0.0633,,,
G80A,0.0354,0.0782,0.0408,,0.0743,0.0611,,,,0.0781,,0.0718,0.0573,0.0646,0.0653,0.0578,,,0.064
G80W,0.0601,0.0517,0.0697,0.0488,0.0448,0.0596,0.0518,0.117,0.0635,,0.0466,0.0643,0.055,,0.0827,,0.0762,,0.0542
G80D,0.0708,,,,0.0678,,0.0538,0.156,0.0617,0.0895,,0.0725,,0.057,,0.0647,,,0.0718
G80I,0.0437,0.0563,0.0523,,0.0514,,0.0612,,0.0656,0.0699,0.0613,,0.06,,0.04,0.0571,0.109,0.0503,
G80V,0.0537,0.068,0.0483,0.0758,0.0595,0.0648,,0.127,0.0594,,,0.0664,0.0555,0.0539,0.0518,0.0665,0.0849,0.0098,
R106G,0.0549,0.0598,0.0598,0.0673,0.0709,,,,,,0.0604,0.068,0.0628,,,0.0393,0.0742,,0.056
R106K,0.0726,0.0741,,,,0.0656,0.0647,,,0.0824,0.0508,,,,,0.0583,0.0978,,
M83F,0.058,,0.073,0.0562,0.0616,0.0499,0.0623,,,,,0.0633,,0.047,0.0648,,,,0.058
T115M,0.0517,0.0585,0.0583,0.0634,0.0613,0.0676,0.0505,,,0.0911,0.0663,0.0617,0.0683,0.0528,0.085,0.0517,0.0774,0.0568,0.064
T115G,0.0758,0.0654,,0.0643,,0.0583,,,,,,,0.0609,,,0.0679,0.0593,,
K98W,0.055,0.0383,0.0452,0.0633,0.0638,0.0628,0.0515,0.0975,,0.0796,0.0561,,0.0651,,0.0629,,0.0913,,0.0643
M88R,0.0532,0.0495,0.0458,0.0477,,,,0.0695,,,,,0.0372,0.0573,,,0.0505,,
M88N,0.0399,0.0581,0.057,0.0482,0.0416,0.061,,0.0929,,,0.0456,0.0382,0.0435,0.044,0.0462,0.0459,,0.0154,
M88F,0.0302,0.0628,0.0573,0.0525,,0.0362,,0.0865,,,,,,0.059,0.0508,,,0.0035,
M88V,0.0513,0.0459,0.0573,0.0633,0.0582,0.0618,0.0424,0.091,0.0795,,0.037,0.0469,0.0593,,0.064,0.0639,0.0735,,0.0556
M88T,0.0824,0.0846,,,0.0624,,0.0753,0.0983,,,0.0673,,0.0547,0.0557,0.0253,,,,
K120T,0.0672,0.0633,0.045,0.049,,0.0625,0.0686,,0.0757,0.0719,,,,0.0698,,0.0641,,,0.0476
K120V,0.0597,,0.0608,0.0606,0.0495,0.062,0.0567,,0.0607,,0.0524,0.0661,0.0594,0.0603,0.0612,,0.0751,,
K120A,0.0149,0.069,0.0573,0.0602,0.0556,,,0.131,0.0422,,0.0501,0.0361,0.0651,,0.0575,0.0672,0.0854,,0.0292
K120D,0.0678,0.0645,0.0592,0.0644,0.0573,,0.06,,0.0606,,0.0507,0.0466,,0.0681,0.0638,0.0815,,,0.0593
K120C,0.0562,0.0789,,0.109,0.0666,,0.059,,0.0663,,,,0.0897,0.0488,0.0697,0.0628,0.0768,0.0601,
